Consider 62 molecules from PubChem BioAssay (NCI).

Structures are written as SMILES. Values joined by “and” are separate entries in the source; they are usually repeats but may differ in a detail not shown here. Identical values can stand only once.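 Following 48 hours of exposure in 96-well plates, responses at five concentrations were used to interpolate endpoints linearly. At the GI50, growth is halved. TGI marks complete inhibition of growth.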

For the test, the system named is NCI-H322M lung. Nature of the test: inhibition of tumour cell growth, NCI panel, 48 h.
For the molecule `CCS(=O)(=O)c1ccc(OC)c(Nc2ncc(-c3cccc(-c4ccccc4F)c3)o2)c1`, the GI50 is 9.86 µM and the TGI was over 25 µM.

As for `COC(=N)C(C)C`, the TGI was over 100 µM.

As to `Nc1nn(C(=O)Nc2ccc(Cc3ccccc3)cc2)c2ccc(Cl)cc12`, the GI50 was 17.3 µM and the TGI was over 100 µM.

The molecule `NC(N)=NS(=O)(=O)c1ccc(Nc2c3ccccc3nc3c(C(=O)N4CCN(CCO)CC4)ccc(Cl)c23)cc1` showed a TGI of over 100 µM.

Take `COc1cc(-c2nn(C)nc2-c2cc3ccccc3s2)cc(OC)c1OC`: the GI50 is 1.26 µM and the TGI is over 100 µM.

Turning to `Cn1c(=O)c2[nH]c(/N=N\n3ccc4ccccc43)nc2n(C)c1=O`, the TGI was over 100 µM.

With `O=Cc1ncc(-c2ccc(C(F)(F)F)cc2)c(NC2CCCCCC2)n1`, the GI50 is over 10 µM and the TGI is over 10 µM.

Molecule `S=C1CNC(=S)CN1` had a TGI of over 100 µM.

`CC(C)c1ccc2c(c1)[C@@]1(C)CC[C@H](C)C(C)(C)C1CC2` (some centres undefined) showed a TGI of 32.1 µM.

Regarding `S=C(Nc1ccc(-c2nc3ccccc3s2)cc1)Nc1ccccn1`, the GI50 was 30.1 µM and the TGI is over 89.4 µM.

`CC12Oc3ccc4ccccc4c3C1c1c(ccc3ccccc13)O2` (centres undefined) gave a TGI of over 100 µM.

In the case of `c1ccc2c(c1)nnn1c3cnccc3nc21`, the TGI was found to be 81.6 µM.

Turning to `COC(=O)C1=C2C3=C(C(=O)c4ccccc4C3=O)N(Cc3ccccc3)C2(OC(C)=O)C=CC1=O` (centres undefined), the GI50 was 9.9 µM and the TGI is 36.6 µM.

`CN(C)c1cc2c(cc1Sc1nc3c(N)nccc3n1CCNCC(C)(C)C)OCO2`: the GI50 is 2.29 µM and the TGI is over 100 µM.

`CCOC(=O)c1c(N2CCOCC2)[nH]c(=O)c(C(c2c(O)c(C(=O)OCC)c(N3CCOCC3)[nH]c2=O)C(C)C)c1O` came in with a TGI of over 100 µM.

As for `Cc1cc2c(cc1Cl)SC(NN(C)C)=NS2(=O)=O`, the TGI is over 10 µM.

On to `CCOC(=O)c1c(Nc2ccccc2)sc2cccnc12`, for which the TGI was over 96.1 µM.

For the molecule `Cn1c2c(c3c(=O)[nH]ncc31)CCc1ccccc1-2`, the TGI is over 100 µM.

For `CCOc1cc(NC(C)=O)ccc1C(=O)N/N=C/c1ccco1`, the TGI is over 100 µM.

As for `CNC(=S)NNC(=O)c1c(C)nc2sccn12`, the TGI is over 100 µM.

For `COc1cc(C2=Nc3c/c(=C\c4c(O)[nH]c5ccc(Cl)cc45)ccc3=N2)cc(OC)c1OC`, the GI50 was 5.4 µM and the TGI was 26 µM.

In turn, `Cc1nc2ccc(N=Nc3c(O)ccc4ccccc34)cc2[nH]1` gave a TGI of over 100 µM.

For the molecule `O=C(/C=C/c1ccccc1O)c1ccccc1`, the GI50 is 11.5 µM and the TGI was 24.7 µM.

Consider `CC(Br)C(=O)c1ccc2cc(Br)c3ccccc3c2c1` (centres undefined), for which the TGI came to 35.5 µM.

Consider `CCOP(=O)(OCC)/C(=C/c1ccccc1)CC(C)=O`, for which the TGI was over 100 µM.

As to `CNC(=O)c1cc(Oc2ccc3nc(NC(=O)c4cc(C(F)(F)F)cc(C(F)(F)F)c4)sc3c2)ccn1`, the GI50 is 3.7 µM and the TGI was 19.8 µM.

`COC(=O)C(=C\Sc1ccccc1)/C=C/C(=O)OC(C)(C)C` returned a TGI of 33.7 µM.

`COC(=O)C1=C(C(=O)Nc2cccnc2)C2OC1(C(Cc1ccccc1)Oc1ccccc1)C1OC21` (centres undefined): the GI50 was 18.3 µM and the TGI is 41.6 µM.

Consider `CC(C)N(CCCNc1c2ccccc2nc2cccc([N+](=O)[O-])c12)C(C)C`, for which the TGI amounted to 15.4 µM.

`O=C(CN1CCOCC1)c1ccc2[nH]c(=O)oc2c1` yielded a TGI of over 100 µM.

Molecule `CCOC(=O)/C(=C/c1cc(OC)ccc1OC)CC(=O)O` yielded a TGI of over 100 µM.

For the molecule `CCOC(=O)C(Cc1ccc(OC(=O)c2ccc(OC)cc2OC)cc1)NC(=O)C(F)(F)F` (centres undefined), the TGI worked out at 38.6 µM.

In turn, `COC(=O)/C=C1/OC(c2ccc(Br)cc2)=C(Br)C1=O` registered a TGI of 28.9 µM.

`S=c1cn[nH]c2ccc(Br)cc12` showed a TGI of over 100 µM.

`Nc1cccc(-c2nc3sccn3c2-c2ccnc(NCCCNS(=O)(=O)c3ccc(C(F)(F)F)cc3)n2)c1`: the GI50 is 7.63 µM and the TGI amounted to 56.4 µM.

Molecule `O=C(O)c1ccc([N+](=O)[O-])c(P(=O)(O)O)c1` showed a TGI of over 100 µM.

Take `NC(=O)c1cccc(N)c1`: the GI50 is over 100 µM and the TGI was over 100 µM.

On to `Cc1ccc2c(=O)c(-c3nnsn3)c[nH]c2n1`, for which the TGI is over 100 µM.

`CC(=O)NC(ON1C(=O)COc2ccccc21)C(Cl)(Cl)Cl` (centres undefined) returned a TGI of over 100 µM.

The molecule `NS(=O)(=O)c1cc(S(N)(=O)=O)c(NC(=O)Nc2ccc(Cl)c(Cl)c2)c(Cl)c1Cl` had a TGI of over 100 µM.

`O=[N+]([O-])c1nccn1CCCN=c1c2ccccc2n(O)c2ccccc12` yielded a TGI of over 100 µM.

Consider `O=C(/C=C/c1ccccc1Cl)c1ccc(O)cc1`, for which the GI50 was 17.4 µM and the TGI turned out to be 31.7 µM.

The molecule `COc1ccc(Cc2cc(OC)c(OC)c(OC)c2)cc1O` displayed a TGI of over 100 µM.

On to `NC(=O)ON=C1CCN(Cc2ccccc2)CC1`, for which the TGI was over 100 µM.

As to `COC1OC(C(=O)CP(=O)(OC)OC)C(OCc2ccccc2)C(OCc2ccccc2)C1OCc1ccccc1` (centres undefined), the TGI is 30 µM and 30.9 µM.

On to `COc1cc(/C=C2\N=C(c3ccccc3)N(c3nc4c(Cl)cc(Cl)cc4s3)C2=O)ccc1O`, for which the TGI is over 100 µM.

Turning to `COc1ccc(C2=C(Br)C(=O)OC2)cc1Cl`, the GI50 is 21.9 µM and the TGI came to 65.3 µM.

For `CC(C)(C)c1ccc(O)c(Br)c1`, the TGI is over 100 µM.

In turn, `NNC(=O)CC(=O)Nc1ccc(C(=O)O)cc1` returned a TGI of over 100 µM.

With `NC(=O)Cc1ccccc1Oc1nccc(-c2c(-c3ccc(F)cc3)ncn2C2CCNCC2)n1`, the GI50 is over 25 µM and the TGI was over 25 µM.

Regarding `CN(C)C/C=C(/c1ccc(Br)cc1)c1cccnc1`, the TGI is over 100 µM.

On to `Nn1c(-c2ccccc2Nc2ccccc2-c2n[nH]c(=S)n2N)n[nH]c1=S`, for which the TGI is over 50 µM.

In the case of `O=CC(O)C(O)C(O)COc1cc(CO)cc2c1C(=O)c1ccccc1C2=O` (centres undefined), the TGI was over 100 µM.

As for `COc1cccc(C2=NN(C(C)=O)C(c3cc(OC)c(OC)c(OC)c3)C2)c1` (centres undefined), the GI50 was 4.44 µM and the TGI is over 100 µM.

`COc1cccc2c3cccc(OC)c3c3[nH]cnc3c12` showed a TGI of 10.2 µM.

`O=C(CSc1nc2ccc(Cl)cc2c(=O)n1-c1ccccc1)N=Nc1c(O)[nH]c2ccc(F)cc12` returned a TGI of 12.8 µM.

As for `Clc1ccc(N/N=C/c2ccccn2)nc1`, the GI50 was 0.363 µM and the TGI was over 100 µM.

The molecule `COC1=C(C)C(=O)C2C(C1=O)C(c1ccc(OC)c(OC)c1)[C@H]2C` (some centres undefined) yielded a TGI of over 100 µM.

As for `Cn1c(=O)c(Sc2ccccc2F)cc2cnc(NC3CCOCC3)nc21`, the GI50 is over 25 µM and the TGI is over 25 µM.

`Clc1ccc(-c2nc(-c3c[nH]c4ncccc34)cs2)cc1`: the GI50 is over 100 µM and the TGI was over 100 µM.

With `CCN1CCN(CCNc2nccc(-c3c(-c4cccc(O)c4)nc4sccn34)n2)S1(=O)=O`, the GI50 was 21.5 µM and 11.2 µM; the TGI is 32.5 µM and > 100 µM.

Turning to `Nc1ccccc1C#Cc1ccccc1C#Cc1ccccc1N`, the GI50 is 11.4 µM and the TGI was 33 µM.
